# The whole screen tested about 310,000 compounds, of which about 2,200 (0.71%) showed an effect of 50% or more. The effect is printed as a negative number. The list shows a part of the results.
# Target: human ether-à-go-go-related gene (hERG) potassium channel (human, UniProt Q12809)
# Assay: primary screen, population patch clamp on CHO cells stably expressing hERG
# Chain of human ether-à-go-go-related gene (hERG) potassium channel (Q12809 whole entry, looked up): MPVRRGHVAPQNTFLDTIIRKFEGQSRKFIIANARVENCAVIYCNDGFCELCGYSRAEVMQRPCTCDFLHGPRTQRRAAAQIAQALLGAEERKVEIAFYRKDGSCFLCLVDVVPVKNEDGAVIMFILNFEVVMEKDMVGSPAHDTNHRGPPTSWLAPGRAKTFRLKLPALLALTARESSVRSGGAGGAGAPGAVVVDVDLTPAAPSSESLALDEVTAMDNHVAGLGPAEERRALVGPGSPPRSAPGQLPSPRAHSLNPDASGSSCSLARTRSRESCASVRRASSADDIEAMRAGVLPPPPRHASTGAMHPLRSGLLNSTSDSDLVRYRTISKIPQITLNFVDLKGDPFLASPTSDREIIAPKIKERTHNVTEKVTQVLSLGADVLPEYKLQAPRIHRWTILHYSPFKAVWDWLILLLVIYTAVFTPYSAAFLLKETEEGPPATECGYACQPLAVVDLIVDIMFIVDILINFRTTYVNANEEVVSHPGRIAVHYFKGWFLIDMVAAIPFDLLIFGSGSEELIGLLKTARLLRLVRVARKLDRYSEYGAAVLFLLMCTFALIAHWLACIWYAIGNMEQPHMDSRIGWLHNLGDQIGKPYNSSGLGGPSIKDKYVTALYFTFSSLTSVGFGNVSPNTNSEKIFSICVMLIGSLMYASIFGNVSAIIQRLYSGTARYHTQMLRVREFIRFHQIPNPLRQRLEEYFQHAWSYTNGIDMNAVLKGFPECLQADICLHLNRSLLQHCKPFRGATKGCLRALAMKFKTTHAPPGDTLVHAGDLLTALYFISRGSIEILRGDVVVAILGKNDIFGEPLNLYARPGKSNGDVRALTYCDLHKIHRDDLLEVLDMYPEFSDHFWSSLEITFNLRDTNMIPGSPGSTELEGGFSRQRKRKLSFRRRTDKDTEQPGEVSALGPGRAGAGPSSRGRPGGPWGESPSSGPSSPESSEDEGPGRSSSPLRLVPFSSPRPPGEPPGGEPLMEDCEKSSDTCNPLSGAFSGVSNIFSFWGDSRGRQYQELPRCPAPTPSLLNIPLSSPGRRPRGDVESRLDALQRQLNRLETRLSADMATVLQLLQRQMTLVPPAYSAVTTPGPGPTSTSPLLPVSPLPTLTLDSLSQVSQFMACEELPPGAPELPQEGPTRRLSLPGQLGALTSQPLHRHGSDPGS
row,Compound,"hERG current change (%, negative = inhibition) at 1uM [%]"
1,CO/N=C/NC(=O)NOCc1ncc(C(F)(F)F)cc1Cl,10.8
2,O=C(NCc1ccc(OC(F)(F)F)cc1)C1CC(c2ccc(C(F)(F)F)cc2)=NO1 (centres unmarked),9.31
3,CN(C)S(=O)(=O)c1cccc(NC(=O)c2ccc3c(c2)OCCO3)c1,-5.59
4,N#Cc1ccc(OCC(=O)Nc2cccc(S(=O)(=O)NC3=NCCCCC3)c2)cc1,9.67
5,CCOc1ccc(-c2cc(C(=O)N/N=C(\C)c3cccnc3)c3ccccc3n2)cc1,10.9
6,COc1ccc([C@@H]2C(C#N)=C(N)S[C@@H](c3ccccc3)[C@@H]2[N+](=O)[O-])cc1,-2.75
7,Cc1nccc(-c2cccc(N/N=C(\C#N)C(=O)c3ccccc3)c2)n1,7.67
8,COCC(=O)N1CCC(Oc2ccc(C(=O)N3CCCCCC3)cc2)CC1,10
9,CC(C)c1ccc(NC(=O)C2CCC(CNC(=O)[C@@H]3Cc4ccccc4CN3)CC2)cc1 (some centres unmarked),10.3
10,O=C(CN(CCc1ccccc1)C(=O)c1csnn1)NC1CCCC1,0.269
11,CCOC(=O)C(Cc1ccccc1)C(=O)c1ccco1 (centres unmarked),14.6
12,C/C(=N\O)C(=O)NCc1ccncc1,12.8
13,COc1ccc(C(=O)Nc2nnc(-c3ccccc3)o2)cc1OC,9.86
14,COc1ccc(N2CCN(CCCNC(=O)CN3C(=O)COc4ccccc43)CC2)cc1,4.56
15,COc1ccccc1/C=N/NC(=O)c1ccc(N(C)S(=O)(=O)c2ccccc2)cc1,8.23
16,O=C(CCSc1nnc(-c2ccccc2)o1)N1CCOCC1,10.1
17,CC(C)NC(=O)c1cc(=O)n(C)c(=O)n1C,12.3
18,C=CCN1C(=O)C(Cc2ccccc2)SC1=Nc1ccc(C(=O)O)cc1 (centres unmarked),15.9
19,COc1ccc(NC(=O)Nc2ccc3c(c2)CCC3)cc1OC,17.4
20,N#Cc1ccccc1NC(=O)CN1CCOCC1,11.3
21,COc1ccc(CNC(=O)C2CC(c3cccc(OC)c3)=NO2)cc1 (centres unmarked),11.6
22,Clc1ccc(OCCSc2ncccn2)c(Br)c1,17.1
23,O=C(Nc1nc2ccccc2[nH]1)c1ccc(Cl)c([N+](=O)[O-])c1,7.03

row,Compound,"hERG current change (%, negative = inhibition) at 1uM [%]"
1,Cc1nc2ccccc2[nH]c1=O,15.1
2,COc1ccc(SCCN2CC[C@@H](NC(=O)OCc3ccccc3)CCC2=O)cc1,3.41
3,O=C1NCCn2ccc(=O)cc21,2.21
4,O=C(Cc1ccccc1)c1nc2ccccc2s1,15
5,C/C(N)=C(/C#N)C(=O)CSc1nc(-c2ccccc2)c(-c2ccccc2)o1,12.1
6,CCOC(=O)c1[nH]c2c(c1C)C(=O)CC(c1ccc(OC)c(OC)c1)C2 (centres unmarked),-4.12
7,CC(Oc1cccc2cccnc12)C(=O)N/N=C/c1ccc2c(c1)OCO2 (centres unmarked),11.3
8,CC(C)c1ccc(NC(=O)Cn2cccc2C2=NC(c3ccccc3)CO2)cc1 (centres unmarked),1.57
9,O=c1[nH]c(=O)n(Cc2ccco2)c(O)c1C=NCCN1CCNCC1,9.92
10,O=C(NC1CCCC1)c1cc2nc(-c3ccco3)cc(C(F)(F)F)n2n1,17
11,CCOc1ccc(C(c2c(NC(=O)c3ccco3)sc(C)c2C)N2CCOCC2)cc1 (centres unmarked),8.05
12,COc1ccc(C(=O)N2CCN(C3CCC(c4ccccc4)CC3)CC2)cc1OC (centres unmarked),-60.4
13,CC(C)Cn1c(N)c(C(=O)COC(=O)[C@@H]2CCCN2C(=O)c2cccs2)c(=O)n(C)c1=O,8.91
14,C=C(C)C(=O)Nc1ccc2c(c1)OCCOCCOCCO2,2.65
15,O=C(/C=C/c1ccccc1)NCc1ccc2c(c1)OCO2,4.23
16,Cc1cc(C(=O)CSc2nnc(-c3ccccc3)o2)c(C)n1CC1COc2ccccc2O1 (centres unmarked),4.84
17,CSc1ncc(C(=O)Nc2ccccc2)cn1,13.6
18,CC(C)CC(=O)NNC(=O)c1ccc(Cl)cc1,19.9
19,COc1ccccc1CN(C)C(=O)c1sccc1-c1ccccc1,15.4
20,COc1ccc(C(=O)Nc2ccccc2C(=O)NC(Cc2c[nH]c3ccccc23)C(=O)O)cc1 (centres unmarked),9.17
21,COc1ccc(-c2cnc(N)nc2-c2ccc(OC)cc2O)cc1,10.5
22,O=C(CNS(=O)(=O)c1c(Cl)cccc1Cl)OCc1csc(-c2ccccc2)n1,4.76
23,CCc1ccc(Nc2cc(C(=O)NCCCN3CCOCC3)c3ccccc3n2)cc1,6.33

row,Compound,"hERG current change (%, negative = inhibition) at 1uM [%]"
1,CCC(=O)/C=C1/Sc2ccccc2N1CC,10.1
2,COc1ccc(-n2c(Cc3cccn3C)nnc2SCC(=O)Nc2ccc(C)c(Cl)c2)cc1,-12.1
3,CN(C1CCS(=O)(=O)C1)S(=O)C12CC3CC(CC(C3)C1)C2 (centres unmarked),18.1
4,COC(=O)C1(C)NC(c2ccccc2F)C2C(=O)N(c3ccccc3)C(=O)C21 (centres unmarked),13.3
5,NC(=O)C1(N2CCCCC2)CCN(C(=O)NC2CCCCC2)CC1,8.49
6,CCn1c(Cc2c(C)[nH]c3ccccc23)nnc1SCC(=O)NCc1ccccc1,14.7
7,COCCNC(=O)/C(C#N)=C1\N=C(NC(=O)c2cccs2)c2ccccc21,-2.07
8,COc1cc(CC(CC(=O)O)CC(C)OCc2ccccc2)cc(OC)c1 (centres unmarked),13.6
9,O=Nc1c(O)n(Cc2ccc(Cl)cc2)c2ccccc12,13.3
10,O=C(O)c1ccc(Sc2ccccn2)c([N+](=O)[O-])c1,11.9
11,COc1ccc(N2CCN(C(=O)COC(=O)c3cccc(S(=O)(=O)Nc4cccc(C)c4)c3)CC2)cc1,9.12
12,Cc1cc(C)nc(CCNC(=O)c2cc(COc3ccc(F)cc3F)on2)n1,-6.46
13,CC(=O)Nc1cccc(-c2csc(Nc3ccc(C)cn3)n2)c1,1.43
14,Cc1ccc(S(=O)(=O)NCCSC(C)(C)C)cc1,-0.833
15,COc1ccc(C2CC(C(F)(F)F)n3nc(C(=O)NCc4cn(C)nc4C)c(Cl)c3N2)cc1 (centres unmarked),14.3
16,OC(CCCN1CCC(O)(c2ccc(Cl)cc2)CC1)c1ccc(F)cc1 (centres unmarked),-72.7
17,N#Cc1ccc(CSc2nnc(-c3ccncc3)n2CCc2ccccc2)cc1,-78.2
18,CCN(CC(=O)Nc1ccc(OC)cc1)C(=O)c1cc2c(s1)CCCCC2,11.2
19,O=C(O)C1CN(c2ncccc2[N+](=O)[O-])C1,13.4
20,N/C(=N\OC(=O)c1ccc(F)cc1)c1cccc([N+](=O)[O-])c1,17.5
21,O=C(N/N=C/c1ccncc1)c1ccc(OCc2ccccc2)cc1,11.2
22,O=C(NCCCN1CCCCCC1)C1CC(=O)N(C2CCCC2)C1 (centres unmarked),1.87
23,Cc1ccc(NC(=S)c2ccncc2)c(C)c1,12.4

row,Compound,"hERG current change (%, negative = inhibition) at 1uM [%]"
1,N#CC1=C(N)Oc2c(O)cc3ccccc3c2C1c1ccsc1 (centres unmarked),9.46
2,CCOc1cc(C2C(C#N)=C(N)OC(C)=C2C(C)=O)cc(Br)c1O (centres unmarked),10.2
3,O=C(COC(=O)c1ccc(O)cc1O)Nc1ccc2ccccc2c1,12.4
4,COc1ccc(S(=O)(=O)N2CCC(CN3C(=O)c4cccc5cccc(c45)C3=O)CC2)cc1,4.97
5,CC(C)C[C@H](NC(=O)c1[nH]cnc1C(=O)N[C@@H](C)C(=O)OC(C)(C)C)C(=O)OCc1ccccc1,9.98
6,COc1ccc(NS(=O)(=O)c2ccc3c(c2)CCO3)cc1,9.57
7,Cn1c(=O)[nH]c(=O)c2c1nc(SCCN1CCOCC1)n2CCCc1ccccc1,-6.15
8,Cc1ccc(CNC(=O)C2CNc3cc(C)ccc3O2)cc1 (centres unmarked),3.24
9,CCCOc1ccc2ccccc2c1/C=N/n1cnnc1,1.21
10,CCN(CC)CCOC(=O)c1ccc(NC(=O)C(C)NC(=O)C23CC4CC(CC(C4)C2)C3)cc1 (centres unmarked),6.42
11,Cc1ccc2c(c1)C1CN(C)CCC1N2C(=O)c1cccnc1Cl.Cl (centres unmarked),11.9
12,CC1CC(C)CN(c2ccc([N+](=O)[O-])cc2-c2nn[nH]n2)C1 (centres unmarked),2.23
13,CC1(c2ccc3ccccc3c2)NC(=O)N(CC(=O)NCc2cccs2)C1=O (centres unmarked),8.16
14,CC(=O)c1cccc(-c2ccc3c(=O)[nH]c(Nc4ccccc4)cc3c2)c1,12.3
15,CC(=O)C1=C(NC(=O)c2ccc(F)cc2)CC2C1C2(C)C (centres unmarked),9.7
16,COc1ccc(CNC(=O)C(=O)NCC2OCCN2S(=O)(=O)c2cccs2)cc1 (centres unmarked),6.38
17,S=c1[nH]ncc2ccccc12,9.69
18,CCCn1c(N2CCN(C(=O)/C=C/C(=O)O)CC2)nc2ccccc21,14.7
19,Cc1ccc2nc(N3CCN(Cc4nnnn4Cc4ccccc4)CC3)c(C#N)cc2c1,9.75
20,CC(=O)Nc1ccc(/C=C/C(=O)c2ccc3c(c2)OCCO3)cc1,7.26
